The source of these data is publication PMC4336329 (PLoS ONE, 2015).

SMILES strings stand for the structures. The whole screen tested about 310,000 compounds, of which about 2,200 (0.71%) showed an effect of 50% or more. The effect is printed as a negative number. Some of the results follow.

In this assay the target is human ether-à-go-go-related gene (hERG) potassium channel (human, UniProt Q12809). Put plainly: primary screen, population patch clamp on CHO cells stably expressing hERG.
Chain of human ether-à-go-go-related gene (hERG) potassium channel (Q12809 whole entry, looked up): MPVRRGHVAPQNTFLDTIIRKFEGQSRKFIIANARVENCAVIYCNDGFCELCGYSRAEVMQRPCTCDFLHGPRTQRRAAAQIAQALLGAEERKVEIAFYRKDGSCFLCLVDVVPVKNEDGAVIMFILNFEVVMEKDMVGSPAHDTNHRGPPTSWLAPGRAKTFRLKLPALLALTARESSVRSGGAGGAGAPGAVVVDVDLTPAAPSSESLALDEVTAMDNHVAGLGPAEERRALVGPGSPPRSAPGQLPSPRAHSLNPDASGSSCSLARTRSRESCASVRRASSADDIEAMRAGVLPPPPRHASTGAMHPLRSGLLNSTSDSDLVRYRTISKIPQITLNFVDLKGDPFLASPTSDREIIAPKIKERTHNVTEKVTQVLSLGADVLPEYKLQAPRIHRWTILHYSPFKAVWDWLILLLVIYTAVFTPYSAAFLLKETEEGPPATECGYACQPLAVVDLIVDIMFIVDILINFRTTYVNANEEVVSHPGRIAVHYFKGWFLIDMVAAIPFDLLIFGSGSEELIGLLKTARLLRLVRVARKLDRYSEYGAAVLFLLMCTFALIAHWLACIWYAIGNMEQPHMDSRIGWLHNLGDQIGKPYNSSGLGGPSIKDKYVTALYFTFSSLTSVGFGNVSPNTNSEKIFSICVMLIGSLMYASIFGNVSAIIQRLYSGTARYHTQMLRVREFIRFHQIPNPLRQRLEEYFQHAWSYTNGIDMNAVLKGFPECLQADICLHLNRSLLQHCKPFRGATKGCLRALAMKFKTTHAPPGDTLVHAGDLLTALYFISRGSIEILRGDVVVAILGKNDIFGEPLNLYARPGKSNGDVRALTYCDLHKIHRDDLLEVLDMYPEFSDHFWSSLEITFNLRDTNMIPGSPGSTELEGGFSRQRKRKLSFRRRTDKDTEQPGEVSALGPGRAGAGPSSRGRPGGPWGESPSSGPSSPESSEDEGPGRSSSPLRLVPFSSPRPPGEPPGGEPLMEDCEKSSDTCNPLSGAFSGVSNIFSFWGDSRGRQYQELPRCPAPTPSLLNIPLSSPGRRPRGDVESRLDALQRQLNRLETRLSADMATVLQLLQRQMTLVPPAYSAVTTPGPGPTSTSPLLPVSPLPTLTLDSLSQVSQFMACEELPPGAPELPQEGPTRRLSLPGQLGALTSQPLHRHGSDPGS
In the case of `COc1cc(/C=C2/C(=O)NN(c3ccc(Cl)cc3)C2=O)ccc1OC(=O)c1ccco1`, the “hERG current change (%, negative = inhibition) at 1uM” value stood at 14.6%.
Consider `Nc1c(C(=O)Nc2ccccc2)sc2nc3c(c(-c4ccco4)c12)CCCC3`, for which the “hERG current change (%, negative = inhibition) at 1uM” value worked out at 22.1%.
The result for `CC(OC(=O)CCCC(=O)Nc1ccc(F)cc1)C(=O)c1ccccc1` (stereo not shown) reads 12.7%; that for `O=C(c1ccc(CN2CCc3ccccc3C2)cc1)N1CCN(c2ccc(F)cc2)CC1`, -20.1%.
The result for `COc1ccc(CC(=O)NNC(=O)c2ccccn2)cc1` reads 5.87%; that for `N#Cc1ccc(C(=O)Nc2nc(SCc3ccc(Cl)cc3)n[nH]2)cc1`, -9.07%.
For the compound `COc1ccc(C(CNC(=O)C2CC2)N(C)C)cc1` (stereo not shown), the “hERG current change (%, negative = inhibition) at 1uM” value stood at 8.34%.
In the case of `CN(C)c1ccc(/C=N\Nc2nc(-c3ccccc3)cc(=O)[nH]2)cc1`, the “hERG current change (%, negative = inhibition) at 1uM” value amounted to 9.73%.
The result for `COc1ccc(OC)c(-c2cc(C(=O)N3CCCc4ccccc43)no2)c1` reads 3.57%; that for `COc1cc2[nH]c(=O)n(CCC(=O)N3CCN(c4cccc(C)c4C)CC3)c(=O)c2cc1OC`, -1.05%; that for `O=C(CSc1cccc[n+]1[O-])NCCCc1ccccc1`, 2.59%.
The result for `CCN(CC)CCCN1C(=O)C(O)=C(C(=O)c2ccco2)C1c1ccc(C)o1` (stereo not shown) reads 1.25%; that for `CO/C(N)=C(\C#N)N=Cc1ccccc1Cl`, 8.52%.
For the compound `Cc1ccc(-c2csc(NC(=O)c3ccc(-c4ccccc4)cc3)n2)o1`, the “hERG current change (%, negative = inhibition) at 1uM” value was determined as 11.2%.
The figure for `Cc1ccccc1NS(=O)(=O)c1nnc(NC(=O)C(C)C)s1` is 15.7%; for `FC(F)(F)c1ccc(CSc2ccccn2)cc1` it is 11.3%; for `CN(C)S(=O)(=O)N1CCN(c2cccc(Cl)c2)CC1` it is 7.21%.
The figure for `Cc1cc(C)n2c(SCc3ccc(Cl)cc3Cl)nnc2n1` is 4.94%.
The figure for `Cc1ccc(C(=O)/C=C/c2ccc3c(c2)OCCO3)c(O)c1` is 13.2%; for `CCCc1c(C(=O)N/N=C(\C)CCc2ccccc2)nnn1-c1nonc1N` it is 13.3%.
For `Cc1ccc(S(=O)(=O)N2CCN(C)CC2)c2nsnc12`, the “hERG current change (%, negative = inhibition) at 1uM” value is recorded as 10.9%.
Regarding `O=C(Nc1cccc(F)c1)c1c(O)c2cccc3c2n(c1=O)CCC3`, the “hERG current change (%, negative = inhibition) at 1uM” value is recorded as 9.46%.
As to `CCOC(=O)C1=C(C)NC(=O)NC1c1ccc(OCC(=O)Nc2ccccc2)c(OC)c1` (stereo not shown), the “hERG current change (%, negative = inhibition) at 1uM” value was -10.3%.
The figure for `COc1ccc(-c2cc(-c3cccs3)nc(OC)c2C#N)cc1OC` is 24.6%; for `O=C(Nc1ccncc1)c1c(F)c(F)c(F)c(F)c1F` it is 17.9%; for `CCn1ccnc1CNC(=O)CC1C(=O)NCCN1Cc1ccccc1F` (stereo not shown) it is 12.9%.
For the compound `Br.CC1CCCC(C)N1Cc1cn2ccccc2n1` (stereo not shown), the “hERG current change (%, negative = inhibition) at 1uM” value is recorded as 14.1%.
The figure for `O=[N+]([O-])/C=C/c1ccc2c(ccn2Cc2ccccc2)c1` is 11.1%; for `CCCCC(O)(CCCC)C(=O)NN(C(=O)OC)c1ccccc1` it is 8.99%; for `COc1ccc(S(=O)(=O)N(CC(=O)NCc2ccco2)c2ccccc2)cc1` it is -3.88%.
The figure for `COc1ccc(-c2cc(C(=O)NC(C)C)no2)cc1` is 5.8%.
For the compound `CCN(CC(=O)Nc1cc(Cl)ccc1C)C(=O)CSCc1ccc(C)cc1`, the “hERG current change (%, negative = inhibition) at 1uM” value is 5.64%.
The figure for `Cc1nnc(SCc2cccc(CSc3nnc(C)s3)c2)s1` is 5.44%; for `Cn1c(=O)c2c(ncn2CC(=O)N2CCc3ccccc3C2)n(C)c1=O` it is 6.97%.
The result for `O=C(C(=O)N1CCOCC1)c1cn(Cc2ccccc2)c2ccccc12` reads 3.33%.
As to `S=C(NCCNCc1ccccc1)NC1CCCCC1`, the “hERG current change (%, negative = inhibition) at 1uM” value was 3.54%.
The figure for `CCOc1cc(CN2CCN(CCOCCO)CC2)ccc1OC` is 13.2%; for `O=C(COc1ccccc1)N1CCN(C2CCCC2)CC1.O=C(O)C(=O)O` it is 8.65%; for `CCc1nnc(NS(=O)(=O)c2ccc(NC(=S)NC(=O)c3ccc(OC)c(OC)c3)cc2)s1` it is 9.77%.
The result for `COc1ccc(OCCSc2nnc3c(Cl)cc(Cl)cn23)cc1` reads 2.32%; that for `O=C(NCc1ccco1)C(=O)NCC1OCCCN1S(=O)(=O)c1ccc(Cl)cc1` (stereo not shown), 14.3%.
The result for `O=C(OC1CCN(c2ccc([N+](=O)[O-])cc2)CC1)c1ccccc1` reads -8.91%; that for `COc1ccc(Cn2c(=O)sc3ccccc32)cc1`, -5.32%.
As to `Cc1cc(C)n(-c2cc(C)c(C)cc2Br)n1`, the “hERG current change (%, negative = inhibition) at 1uM” value was found to be 9.84%.
Regarding `CCNC(=O)c1c(NC(=O)c2cc(-c3cc(C)ccc3O)n[nH]2)sc2c1CCCC2`, the “hERG current change (%, negative = inhibition) at 1uM” value amounted to 19.2%.
The result for `Cc1cccc(C(=O)NCC(C)NC(=O)c2cccc(C)c2)c1` (stereo not shown) reads 9.7%; that for `O=C(N/N=C/c1ccoc1)c1ccccc1Br`, 13%; that for `Cc1ccc(NC(=O)C2CCCN2C(=O)OCc2ccccc2)cc1C` (stereo not shown), 8.04%.
The result for `Cn1cccc1Cc1nnc(SCC(=O)NC2CCCC2)n1CCc1ccccc1` reads -0.0821%.
As to `COc1nc(-c2ccccc2)ncc1S(=O)(=O)c1ccccc1`, the “hERG current change (%, negative = inhibition) at 1uM” value was 9.45%.
The figure for `O=C(CSc1nnnn1C1CCCCC1)Nc1nc2c(s1)CCCC2` is -3.06%.
For `c1ccn2cc(-c3ccc4c(c3)OCO4)cc2c1`, the “hERG current change (%, negative = inhibition) at 1uM” value is recorded as 13.3%.
The result for `O=C(COc1ccccc1[N+](=O)[O-])OC1CCS(=O)(=O)C1` (stereo not shown) reads 10.2%; that for `CNS(=O)(=O)c1ccc(NC(=O)c2cc(-c3ccncc3)nc3ccc(Cl)cc23)cc1`, 17.4%.
The figure for `Cc1nc(C)c(C(=O)C2=C(O)C(=O)N(CCN(C)C)C2c2ccccc2)s1` (stereo not shown) is 15.8%; for `CCOC(=O)C1CCN(C(=O)C(=O)Nc2ccc3nc4n(c(=O)c3c2)CCCCC4)CC1` it is 8.83%.
As for `CC(Oc1ccc(C#N)cc1)C(=O)NC1CCCC1` (stereo not shown), the “hERG current change (%, negative = inhibition) at 1uM” value is on record as 3.95%.
Consider `CCOC(=O)COc1ccc(Br)cc1/C=C/c1[nH]c(=O)[nH]c(=O)c1[N+](=O)[O-]`, for which the “hERG current change (%, negative = inhibition) at 1uM” value worked out at 13.3%.
The figure for `CC(C)(C)NC(=O)NC(=O)Cn1cc(C(F)(F)F)ccc1=O` is -1.39%.
With `CCN1CCCC1CNC(=O)C1CCN(Cc2nc(-c3cccc(Br)c3)oc2C)CC1` (stereo not shown), the “hERG current change (%, negative = inhibition) at 1uM” value is -0.341%.
The result for `Cc1ccc(S(=O)(=O)N2CCN(C(=O)N3CCOCC3)C2C)cc1` (stereo not shown) reads 2.63%; that for `COc1ccccc1-c1nnc(SCC(=O)Nc2cc(C)on2)o1`, 11%; that for `O=C(Cn1ccc([N+](=O)[O-])n1)c1ccccc1`, 9.25%.
The figure for `O=C(OCn1nnc2ccccc2c1=O)C1CCN(S(=O)(=O)c2cccs2)CC1` is -0.69%; for `Brc1cc2c(cc1Cn1c(-c3cncs3)nc3ccccc31)OCO2` it is 15.2%.
The result for `O=c1c2sccc2nc(SCc2cc(=O)n3cc(Br)ccc3n2)n1Cc1ccccn1` reads 5.7%; that for `O=C(Cn1c(=O)oc2ccccc21)N1CCN(c2ccccc2)CC1`, 9.54%; that for `Clc1ccc(OCCn2ccnc2)c(Cl)c1`, 1.88%.
With `Br.O=C(CSc1nc2ccccc2c(=O)n1-c1ccccc1)c1cccc([N+](=O)[O-])c1`, the “hERG current change (%, negative = inhibition) at 1uM” value came out at 12.7%.
The figure for `CC(=O)NCCC(=O)Nc1sc2c(c1-c1nc3ccccc3[nH]1)CCCC2` is 7.25%; for `CNC(=O)C(C)Sc1ccc(S(=O)(=O)N2CCOCC2)cn1` (stereo not shown) it is 2.91%; for `CCc1nnc(NC(=O)CN2CCN(CC)CC2)s1` it is 11.9%.
The figure for `O=C(NCCSCc1ccc(Cl)cc1Cl)c1ccc(CN2CCOCC2)cc1` is -7.94%.
The result for `CCOC(=O)c1nn(-c2ccc(F)cc2)c(=O)cc1OCC(=O)N1CCN(c2ccccc2)CC1` reads 15.8%; that for `O=C(c1ccccc1)c1ccc(C(=O)N2CCOCC2)cc1`, 6.62%; that for `CC(C)[C@H](NC(=O)c1ccco1)C(=O)N(C)Cc1ccc(C(F)(F)F)cc1`, 10.4%.
Consider `Cc1ccc2cc(CN(CC(C)C)C(=O)C3CCCO3)c(=O)[nH]c2c1` (stereo not shown), for which the “hERG current change (%, negative = inhibition) at 1uM” value is -1.75%.
The figure for `CCC(CC)NC(=O)c1n[nH]c(=O)c2ccccc12` is 16.9%.
Regarding `O=C(O)c1ccc(NC(=O)C2(c3ccccc3)CCCC2)cc1`, the “hERG current change (%, negative = inhibition) at 1uM” value came out at 1.88%.
Regarding `COc1ccc(-n2c(SCC(=O)NCC3CCCO3)nc3c(c2=O)SCC3)cc1` (stereo not shown), the “hERG current change (%, negative = inhibition) at 1uM” value is recorded as 13.3%.
The result for `COc1ccc2nc(SCC(=O)N3CCNC3=O)[nH]c2c1` reads 2.98%.
The figure for `O=C(NC1CCN(Cc2ccccc2)CC1)c1ccccc1F` is -2.19%; for `COC(C/C=C\C(=O)[C@H](C)OCc1ccccc1)OC` it is 13.5%.
In the case of `CC(=NCCc1ccccc1)C1=C(O)C(c2ccccc2)OC1=O` (stereo not shown), the “hERG current change (%, negative = inhibition) at 1uM” value came out at 6.39%.
Regarding `CC(=O)c1c(C)cc(C)c(CSc2nnc(-c3ccco3)o2)c1C`, the “hERG current change (%, negative = inhibition) at 1uM” value is -0.178%.
Consider `COc1cc(OC)c(NS(=O)(=O)c2ccc3c(c2)NC(=O)CO3)cc1Cl`, for which the “hERG current change (%, negative = inhibition) at 1uM” value is listed as 2.84%.
The figure for `Cc1ccnc(NC2(C(F)(F)F)N=C3SCCN3C2=O)c1` (stereo not shown) is 10.7%; for `S=C(NCCc1ccccc1)NCc1cccs1` it is 3.73%; for `COCCN(C(=O)COC(=O)/C=C/c1ccccc1Cl)c1c(N)n(Cc2ccccc2)c(=O)[nH]c1=O` it is 24.5%.
The result for `COc1ccc(S(=O)(=O)N2CCOC2CNC(=O)C(=O)NCCN2CCOCC2)cc1OC` (stereo not shown) reads 11.6%; that for `CCCC(=O)NC(=S)Nc1cccc(NC(=O)c2ccc(Cl)cc2Cl)c1`, 10.8%.
